The values that follow come from PubChem BioAssay AID488969 (Vanderbilt High Throughput Screening Facility, 2010).

The full ranking holds about 110,000 compounds; the median of “z-score” is about -0.1, and the highest 2% start at about 2. Some of the results follow.

This assay has as its target Metabotropic glutamate receptor 8 (Rattus norvegicus) (UniProt P70579). Briefly: rat mGluR8 modulators via GIRK flux, primary screen, cell-based, thallium flux, HTS (AID 488969). Conditions: HEK293 rat mGluR8, GIRK (G protein-gated inwardly rectifying potassium channel) thallium flux, FluoZin2; at 10 µM; stronger effect = higher value; submaximal glutamate (EC20) added with thallium.
UniProt P70579, sequence (P70579 whole entry, looked up): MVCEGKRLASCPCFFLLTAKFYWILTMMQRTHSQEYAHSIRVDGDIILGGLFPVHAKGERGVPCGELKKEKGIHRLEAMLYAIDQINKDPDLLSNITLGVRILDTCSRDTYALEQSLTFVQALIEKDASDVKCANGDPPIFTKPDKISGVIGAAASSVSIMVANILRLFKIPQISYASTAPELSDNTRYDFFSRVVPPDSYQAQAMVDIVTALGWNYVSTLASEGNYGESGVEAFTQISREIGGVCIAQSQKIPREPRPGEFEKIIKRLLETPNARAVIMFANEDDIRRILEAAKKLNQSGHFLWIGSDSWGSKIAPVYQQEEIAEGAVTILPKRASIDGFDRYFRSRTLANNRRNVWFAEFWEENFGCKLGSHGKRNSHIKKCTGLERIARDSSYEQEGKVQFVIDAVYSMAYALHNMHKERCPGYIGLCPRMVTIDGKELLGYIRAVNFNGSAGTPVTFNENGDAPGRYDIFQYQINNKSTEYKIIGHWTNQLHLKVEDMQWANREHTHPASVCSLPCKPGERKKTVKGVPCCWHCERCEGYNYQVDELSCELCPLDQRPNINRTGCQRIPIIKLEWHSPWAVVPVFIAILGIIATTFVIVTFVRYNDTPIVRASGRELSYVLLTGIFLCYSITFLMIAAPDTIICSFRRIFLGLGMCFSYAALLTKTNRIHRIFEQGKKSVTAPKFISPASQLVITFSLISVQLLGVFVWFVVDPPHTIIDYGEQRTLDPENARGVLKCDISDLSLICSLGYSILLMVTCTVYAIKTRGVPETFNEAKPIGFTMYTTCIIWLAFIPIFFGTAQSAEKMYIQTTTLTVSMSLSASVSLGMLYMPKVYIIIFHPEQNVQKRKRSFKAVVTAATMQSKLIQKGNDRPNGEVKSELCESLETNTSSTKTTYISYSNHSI
`O=C(NCCc1ccccc1)C1CCCN1S(=O)(=O)c1ccc(F)cc1` (stereo unspecified) registered a z-score of -0.0903.

Molecule `COc1cc(C2C(C(C)=O)=C(O)C(=O)N2CCN2CCOCC2)ccc1O` (stereo unspecified) came in with a z-score of -0.351.

`Cn1cnnc1SCc1ccccc1`: the z-score is -0.0881.

On to `OC(COCC(F)(F)C(F)(F)C(F)(F)C(F)F)Cn1c2ccccc2c2ccccc21` (stereo unspecified), for which the z-score is 0.164.

`CCCn1nc2cc(C(=O)NCc3ccc(C)cc3)ccc2c1OC` gave a z-score of -0.433.

Molecule `Cn1c(N=Nc2ccccc2)nc2ccccc21` returned a z-score of -0.172.

As for `O=C(NCCc1ccccn1)c1cc(-c2cccc3ccccc23)nc2ccccc12`, the z-score was -0.201.

`Clc1ccc(C(c2nnnn2C2CCCC2)N2CCSCC2)cc1` (stereo unspecified) registered a z-score of -0.998.

Molecule `COc1ccc(-n2c(NCCN(C)C)nc3sc4c(c3c2=O)CCCCC4)cc1` displayed a z-score of 0.108.

`NC(=O)c1cccc(S(=O)(=O)N2CCCCC2)c1` had a z-score of -0.24.

Molecule `CCSc1ccccc1C(=O)NCc1ccco1` came in with a z-score of -0.168.

The molecule `Cc1cccc(N2CCN(C(=O)C3CCCN(S(=O)(=O)c4cnc[nH]4)C3)CC2C)c1` (stereo unspecified) gave a z-score of -0.0441.

As to `FC(F)(F)c1cccc(N2CCN(CC3CC=CCC3)CC2)c1` (stereo unspecified), the z-score is 0.0449.

For the molecule `C=CCOc1ccc2nc(NC(=O)OC)[nH]c2c1`, the z-score is -0.0622.

`COc1ccc2[nH]c(=O)c(CNc3cccc(C)c3)cc2c1` registered a z-score of -0.263.

On to `O=C(Nc1ccc(F)cc1)C1CC(=O)n2c(nc3ccccc32)N1` (stereo unspecified), for which the z-score is -0.119.

Molecule `Cn1c(-c2ccccc2)c(CCO)c2ccccc21` showed a z-score of -0.194.

Consider `O=C(c1ccccc1)N1CCN(c2ccccc2F)CC1`, for which the z-score worked out at 0.276.

In the case of `COc1nccnc1NS(=O)(=O)c1ccc(N=Cc2c(C)[nH]n(-c3ccccc3)c2=O)cc1`, the z-score was -0.188.

Molecule `COc1ccc(C(=O)N(c2ccc(OC)cc2)S(=O)(=O)c2cccs2)cc1` registered a z-score of 0.08.

Consider `COc1cc(OC)cc(-c2ncc3ccccn23)c1`, for which the z-score was -0.226.

The molecule `N#Cc1c(N)n(CCNC(=O)c2ccc(Cl)cc2)c2nc3ccccc3nc12` showed a z-score of -0.116.

`O=C(CCC(=O)OCC(=O)c1ccc(Cl)cc1Cl)Nc1cccc2cccnc12`: the z-score turned out to be 0.0344.

Consider `C=CCN(CC=C)C(=S)Nc1ccccc1`, for which the z-score was -0.0866.

Consider `COC(=O)CSC1=C(C#N)C(c2ccc(Cl)cc2)C(C(=O)OC)C(=O)N1` (stereo unspecified), for which the z-score was -0.203.

In turn, `CCOC(=O)c1cnc2cc(-c3ccc(Cl)cc3)nn2c1N` returned a z-score of -0.0675.

As for `Cn1c(CNS(=O)(=O)c2ccc(Br)cc2)n[nH]c1=S`, the z-score is -0.0999.

Regarding `CCOC(=O)Cn1c(N)c(C(=O)OC)sc1=S`, the z-score was 0.268.

Take `CCOC(=O)c1c(N2C(=O)C3C4C=CC(C4)C3C2=O)sc2c1CCC(C)C2` (stereo unspecified): the z-score is -0.299.

The molecule `CC(=O)Oc1ccc(C(=O)Nc2cc(NC(=O)c3ccc(OC(C)=O)cc3)cc(C(=O)NC(C)(C)C)c2)cc1` returned a z-score of 0.0825.

On to `CCn1c(SCC(=O)NNC(=O)c2ccc(C)cc2)nnc1-c1ccncc1`, for which the z-score is -0.224.

Turning to `Cc1[nH]c(=O)[nH]c(=O)c1NS(=O)(=O)c1ccccc1`, the z-score was -0.278.

In turn, `CCS(=O)(=O)Nc1ccc2c(c1)N(C(C)=O)c1ccccc1CC2` gave a z-score of -0.432.

`Cc1ccc2sc(-c3ccc(NC(=O)CCN4C(=O)c5ccccc5C4=O)cc3)nc2c1` had a z-score of -0.0748.

Turning to `CCOC(=O)c1ccc(N2CSC3=C(C#N)C(c4cccs4)CC(=O)N3C2)cc1` (stereo unspecified), the z-score is -0.177.

The molecule `Cc1ccc(NC(=O)COC(=O)Cn2c(C)csc2=O)cc1` registered a z-score of -1.08.

On to `COP(C)(=O)c1c(C)nn(-c2ccccc2)c1C` (stereo unspecified), for which the z-score is 0.0101.

As to `O=C(NCC1CCCO1)C1CCN(S(=O)(=O)c2cccc3cccnc23)CC1` (stereo unspecified), the z-score is -0.104.

In turn, `Cc1ccc(C(c2nnnn2C2CCCCC2)N2CCN3CCCC3C2)cc1` (stereo unspecified) returned a z-score of -0.813.

`Oc1ccc(CN2CCCc3ccccc32)c2cccnc12` displayed a z-score of -0.948.

The molecule `CN(CCO)Cc1csc2ccc(Br)cc12` had a z-score of -0.103.

In the case of `O=C(COc1ccccc1)N/N=C/c1ccc([N+](=O)[O-])o1`, the z-score stood at 0.0711.

In turn, `O=C(CNC1CCCCCC1)Nc1ccc(S(=O)(=O)NC2CC2)cc1` showed a z-score of -0.309.

`O=C(NCc1ccco1)NCC(F)(F)F` registered a z-score of 0.155.

`COC(=O)C1=C(CSc2nc3ccccc3o2)NC(=O)NC1c1cc(C)ccc1C` (stereo unspecified) returned a z-score of 0.178.

For the molecule `CCOc1ccc(-n2c(Cc3cc(=O)[nH]c(=O)[nH]3)nnc2SC(C)C)cc1`, the z-score was -0.225.

`C=CCNCCCCOc1ccc(C)cc1[N+](=O)[O-]`: the z-score is -1.05.

Consider `O=C(/C=C/Sc1ccccc1)c1ccccc1`, for which the z-score was determined as 0.728.

In turn, `COc1cc2c(cc1NC(=O)CN(C)Cc1cccc(OC)c1OC)oc1ccccc12` came in with a z-score of -0.32.

Molecule `CCN(CC)c1ccc(NC(=O)COc2ccccc2C#N)cc1S(=O)(=O)Nc1ccc(OC)cc1` registered a z-score of -0.103.

With `Nc1cc(=O)[nH]c(=O)n1Cc1ccco1`, the z-score is 0.299.

Take `CN(Cc1ccco1)C(=O)C1CCC(=O)N1Cc1ccc(F)cc1` (stereo unspecified): the z-score was 0.0462.

Consider `Cc1cccc(NC(=O)/C=C/c2ccc3c(c2)OCO3)n1`, for which the z-score is -0.563.

`Cc1cccc(NC(=S)NC2CCN(Cc3ccccc3)CC2)c1C` had a z-score of 0.394.

The molecule `CCOC(=O)c1c(NC(=O)Cn2nnc(-c3ccc(Cl)cc3)n2)sc(C)c1C` came in with a z-score of 0.235.

`CC(C)OC(=O)CSc1nnc(CNc2ccc(Cl)cc2)n1Cc1ccccc1`: the z-score was -0.0845.

With `CCCCCCc1cc2cc(C(=O)Nc3ccccc3OC)c(=O)oc2cc1O`, the z-score was -0.286.

As for `Cc1ccc(-c2noc(CN3C(C)CCCC3C)n2)cc1` (stereo unspecified), the z-score was -0.323.

`O=C(O)CCc1nc(-c2ccccc2)no1` gave a z-score of 0.336.

`N=c1ccn(Cc2ccc(Cl)cc2Cl)cc1` returned a z-score of -0.0779.

For `Cc1cnc(C(=O)OCC(=O)Nc2oc(-c3ccccc3)c(-c3ccccc3)c2C#N)cn1`, the z-score came out at 1.12.

For `Cc1c(N2C(=O)c3cccc4cccc(c34)C2=O)c(=O)n(-c2ccccc2)n1C`, the z-score turned out to be 0.0332.

`COc1ccccc1C(=O)Nc1cc2c(ccc3ccccc32)oc1=O` gave a z-score of 0.145.

Turning to `Cc1cc(C)nc(NS(=O)(=O)c2ccc(NS(=O)(=O)c3ccccc3)cc2)n1`, the z-score was -0.459.

On to `CCOc1ccc(N2C(=O)CC(NCc3ccc(F)cc3)C2=O)cc1` (stereo unspecified), for which the z-score was -0.252.

In the case of `CC1(C)CC(NCc2ccc3c(c2)OCO3)CCO1` (stereo unspecified), the z-score was -0.0457.

As to `CCOc1ccc(-n2c(Cc3cc(=O)[nH]c(=O)[nH]3)nnc2SCC)cc1`, the z-score is -0.0558.

`COc1ccc(C)cc1S(=O)(=O)N1CCN(S(=O)(=O)c2cc(C)ccc2OC)CC1` registered a z-score of -0.0891.

`COc1ccc(C2(CNC(=O)C(c3ccccc3)c3ccccc3)CCOCC2)cc1OC` returned a z-score of 0.0252.

`C=CCC1(O)C(=O)N2C(=C1C(=O)N1CCOCC1)c1ccccc1CC2(C)C` (stereo unspecified) registered a z-score of -0.313.

`CCc1nc2c(cnn2-c2ccc(F)cc2)c(=O)n1-c1ccc(N2CCC(C)CC2)cc1` registered a z-score of -0.3.
